Assay results published in article PMC4336329 (PLoS ONE, 2015).
Screen size: about 310,000 compounds; about 14,000 (4.5%) showed an effect of 50% or more. The effect is printed as a negative number. This is one part of the list.

These compounds were tested against human ether-à-go-go-related gene (hERG) potassium channel (human, UniProt Q12809) (assay: primary screen, population patch clamp on CHO cells stably expressing hERG).
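Further: peak tail current of the secondary pulse compared with the same well before compound.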

human ether-à-go-go-related gene (hERG) potassium channel, sequence (Q12809 whole entry, looked up): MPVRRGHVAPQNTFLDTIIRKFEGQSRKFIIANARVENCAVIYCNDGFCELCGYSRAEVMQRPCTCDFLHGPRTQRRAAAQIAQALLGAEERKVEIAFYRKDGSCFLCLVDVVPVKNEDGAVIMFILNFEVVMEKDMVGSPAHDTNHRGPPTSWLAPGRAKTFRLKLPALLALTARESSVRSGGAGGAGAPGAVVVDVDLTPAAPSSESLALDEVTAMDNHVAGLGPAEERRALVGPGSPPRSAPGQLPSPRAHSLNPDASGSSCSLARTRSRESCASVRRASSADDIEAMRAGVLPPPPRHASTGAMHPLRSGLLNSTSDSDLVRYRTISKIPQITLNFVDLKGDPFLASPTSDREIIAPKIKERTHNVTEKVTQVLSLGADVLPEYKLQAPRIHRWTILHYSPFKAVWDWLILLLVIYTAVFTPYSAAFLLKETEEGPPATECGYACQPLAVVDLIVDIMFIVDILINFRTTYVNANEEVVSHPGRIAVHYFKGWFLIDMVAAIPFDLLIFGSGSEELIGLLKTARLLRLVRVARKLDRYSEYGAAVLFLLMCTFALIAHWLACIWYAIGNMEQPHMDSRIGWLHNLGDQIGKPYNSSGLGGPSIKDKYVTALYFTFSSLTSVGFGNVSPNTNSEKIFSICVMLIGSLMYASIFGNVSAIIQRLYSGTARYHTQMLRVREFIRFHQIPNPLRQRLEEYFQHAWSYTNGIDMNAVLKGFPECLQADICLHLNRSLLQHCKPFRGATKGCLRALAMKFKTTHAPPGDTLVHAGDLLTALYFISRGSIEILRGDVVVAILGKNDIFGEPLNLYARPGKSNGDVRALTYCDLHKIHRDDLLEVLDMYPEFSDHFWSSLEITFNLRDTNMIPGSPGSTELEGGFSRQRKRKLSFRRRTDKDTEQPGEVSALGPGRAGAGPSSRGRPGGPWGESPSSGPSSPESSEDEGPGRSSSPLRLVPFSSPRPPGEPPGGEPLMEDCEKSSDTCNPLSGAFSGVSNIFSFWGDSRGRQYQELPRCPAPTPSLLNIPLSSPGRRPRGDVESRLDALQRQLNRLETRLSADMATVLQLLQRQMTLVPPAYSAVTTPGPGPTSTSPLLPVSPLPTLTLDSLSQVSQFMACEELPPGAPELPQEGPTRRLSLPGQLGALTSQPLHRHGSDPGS

SMILES | hERG current change (%, negative = inhibition) at 10uM [%]
CN(CC(=O)Nc1c(Cl)cccc1Cl)C(=O)c1cccc(-n2cccc2)c1 | -22.3
COc1cccc(CNC(=O)CN(C)S(=O)(=O)c2cnc[nH]2)c1 | 13.5
O=C(CSc1nnc(NC(=O)c2ccccc2C(=O)O)s1)Nc1ccccc1Cl | 24
CC(NC(=O)c1cc([N+](=O)[O-])cc([N+](=O)[O-])c1)c1ccc(-n2ccnc2)cc1 (stereo not shown) | -73.5
COc1cc(C(=O)Nc2ccn(C)n2)ccc1OC(F)F | 8.36
C=C(c1ccc(OC)cc1)c1ccc(OC)cc1 | 4.98
CCOC(=O)c1cccc(NC(=O)C2CCCN(c3nnc(N4CCCC4=O)s3)C2)c1 (stereo not shown) | -4.12
C[C@H]1CN=C2N(CCNC(=O)CCC3CCCCC3)[C@H](Cc3ccc(O)cc3)CN21 | 9.65
CC(C)c1nc(SCC(=O)N2c3ccccc3CC2C)c2ccccc2n1 (stereo not shown) | -12.6
CON1C(=O)C(=O)N(OC)C(C)(C)C1C (stereo not shown) | -8.02
CC(=O)N=c1scc(-c2ccccc2)n1-c1cccc(O)c1 | 7.32
Cc1c(Cl)cccc1NC(=S)N(Cc1ccccc1)Cc1cccnc1 | -2.45
O=C(O)C1CCC(Cn2c(SCc3cc(=O)n4cc(Br)ccc4n3)nc3ccsc3c2=O)CC1 (stereo not shown) | 21.1
COc1ccccc1N1CCN(C(=O)CN2C(=O)C3CCCCC3C2=O)CC1 (stereo not shown) | 22.7
CCc1ccc(NC(=O)C(C)OC(=O)CN2C(=O)NC3(CCCC3)C2=O)cc1 (stereo not shown) | -6.42
Cc1ccc(Cn2nnc3c(=O)n(Cc4ccccc4C)cnc32)cc1 | 9.44
C#Cc1cccc(-n2nnc(C(=O)OC)c2-c2ccccc2)c1 | 19.5
Cc1ccc(C(=O)Nc2ccccc2C(=O)NC(Cc2ccccc2)C(=O)O)cc1 (stereo not shown) | 16.8
Cn1c(NNC(=O)/C=C/c2ccc3c(c2)OCO3)cc(=O)n(C)c1=O | 12.6
CCCCn1c(SCc2nnc(-c3ccccc3)o2)nc2c1c(=O)n(C)c(=O)n2C | -56
CN1CCN(S(=O)(=O)c2ccc3[nH]cc(C(=O)O)c(=O)c3c2)CC1 | -2.95
CN(CC(=O)Nc1ccccc1Cl)C(=O)Cn1cc(C(F)(F)F)cc(Cl)c1=O | -6.27

SMILES | hERG current change (%, negative = inhibition) at 10uM [%]
Cc1ccnc(N2CCC(C(=O)Nc3ccc(Oc4ccccc4)cc3)CC2)n1 | -16.8
COc1ccc(Nc2ncc(C(=O)N3CCC(C(N)=O)CC3)c3ccccc23)cc1 | 11.3
C/C(=N\NC(=O)c1c(Cl)c(C)nn1C)c1ccc(NC(=O)C2CCC2)cc1 | 15.9
CC(=O)Nc1ccc2nc(NC(=O)c3cccnc3)sc2c1 | 9.49
CN(C)c1ccc(/C=C/c2nc3ccccc3s2)cc1 | 17.7
Clc1cccc(NCc2nnc(SCc3ccc(Cl)cc3Cl)o2)c1 | -2.87
CN(C)CCNCc1ccc(OC2CCCC2)cc1.Cl | -5.02
O=C(O)c1ccccc1C(=O)Nc1ccccc1NC(=O)c1ccccc1C(=O)O | 4.73
CNC(=O)c1ccsc1NC(=O)CS(=O)(=O)c1ccccc1 | -6.08
Clc1cc(Cl)c2nc(N3CCOCC3)sc2c1 | 4.3
O=C(CN1C(=O)C(=O)N(C2CCCC2)C1=O)Nc1ccc(Cl)cc1C(F)(F)F | -2.38
O=C(O)c1ccc(/C=C2/SC(=S)N(Cc3ccccc3)C2=O)cc1 | 15.9
Cc1nnc(NNS(=O)(=O)c2ccc(Cl)cc2)[nH]c1=O | -17.3
Cc1ccccc1S(=O)(=O)Cc1ccc(C(=O)N2CCN(c3ccccc3F)CC2)o1 | -40.7
CC1N=C(N)C(c2nc3ccccc3n2C)=C1O (stereo not shown) | 17.7
Cc1csc(=S)n1-c1ccccc1 | 12.8
CCCC(=O)Nc1ccc(C(=O)NNC(=S)NC(=O)c2cccs2)cc1 | 1.72
Cn1ncc([N+](=O)[O-])c1C(=O)Nc1ccn(Cc2ccccc2F)n1 | -9.33
COc1ccccc1C(=O)Nc1c2c(nn1-c1cccc(C)c1C)CS(=O)C2 (stereo not shown) | -29.4
Cc1ccc(N=Nc2cc(C)ccc2O)c(C)c1 | 2.49
COC(=O)[C@H]1C[C@H](C(=O)O)[C@@H](C)C1(C)C | 11.9
CCOC(=O)C1(CCOC)CCN(Cc2ccc(C3CCCCO3)s2)CC1 (stereo not shown) | -21.4

SMILES | hERG current change (%, negative = inhibition) at 10uM [%]
O=C(CSc1nc2ccccc2s1)NC1CCCc2ccccc21 (stereo not shown) | 3.19
COc1ccc(CCNS(=O)(=O)c2cn(C)c(=O)n(C)c2=O)cc1 | -0.217
O=[N+]([O-])c1cc(CN2CCC(O)CC2)ccc1Cl | 9.08
Cc1csc2nc3cc(C(N)=O)ccc3c(=O)n12 | -0.675
O=C1c2ccccc2C(=O)N1CCc1c[nH]c2ccccc12 | 4.46
COc1ccc(Cl)cc1NC(=O)CN(C)CC(=O)NC(C)c1ccccc1 (stereo not shown) | -13
O=S(=O)(Nc1nc2ccccc2nc1-[n+]1ccccc1)c1ccc(Cl)cc1.[Cl-] | 10.5
Cc1ccccc1N1CC(C(=O)O)CC1=O (stereo not shown) | 14.1
Cc1ccc(-n2ncc3c2CC(C)(C)CC3NC(=O)c2ccccn2)cc1 (stereo not shown) | -73.7
CCCNC(=O)CS(=O)Cc1nc(-c2cccc(OC)c2)oc1C (stereo not shown) | 9.57
O=C(c1cc(COc2ccc(-n3cncn3)cc2)on1)N1CCCC1 | -12
Cc1cc(Cl)ccc1N(CC(=O)NCc1ccc2c(c1)OCO2)S(C)(=O)=O | -4.16
Cc1ccc2nc(-c3ccc(NC(=O)CSc4nc(N)cc(=O)[nH]4)cc3)sc2c1 | 0.805
COc1cccc(-c2nc(-c3ccc4c(c3)-c3ccccc3S4(=O)=O)c(-c3ccccc3)[nH]2)c1OC | 0.903
CCC(=O)OCC(=O)Nc1cc([N+](=O)[O-])ccc1OC | -0.573
CCc1c(C)c(C#N)c2nc3ccccc3n2c1NCCOC | -36.9
O=C(NNC(=O)c1ccccc1O)c1cccc(Br)c1 | 17.1
CCC1Oc2ccc(C)cc2N(CC(=O)NCCN2CCCCCC2)C1=O (stereo not shown) | -6.6
CCn1c(SCC(=O)Nc2nccs2)nnc1-c1ccc(S(=O)(=O)N2CCCCC2)cc1 | 12.5
COc1cc(C(=O)Nc2nc(-c3ccc(F)cc3)cs2)ccc1OCC(=O)N1CCOCC1 | -53.3
O=C(O)c1cc(N/N=C/C=C/c2ccccc2)ccc1Cl | 28.3
COc1ccc(OS(=O)(=O)c2ccc(N3C(=O)CCC3=O)cc2)cc1 | 11.1

SMILES | hERG current change (%, negative = inhibition) at 10uM [%]
COC(=O)c1ccccc1NC(=O)CN1CCN(c2ccccn2)CC1 | -15.8
CCc1[nH]nc(C(=O)NC2CCCc3c2cnn3-c2cc(C)cc(C)c2)c1C (stereo not shown) | -21.2
CC1CCc2c(nc3ncnn3c2NCCN(C)C)C1.Cl (stereo not shown) | 18.6
CC1(C)CN(c2cccc(Br)c2)C1=O | 7.96
CCN(CC)c1ccc(C(=O)N/N=C(\C)c2cccc(OC)c2)cc1 | -9.73
CCCOC(=O)C1=C(C)NC(=O)NC1c1cccc2ccccc12 (stereo not shown) | 4.49
COc1nccnc1NS(=O)(=O)c1ccc(N=Cc2c(C)[nH]n(-c3ccc(C)c(C)c3)c2=O)cc1 | -1.25
O=C(NCCCc1ccccc1)C1CCC(=O)N(Cc2ccc(Cl)cc2)C1 (stereo not shown) | -61.3
S=C(Nc1cccc(Cl)c1Cl)NC1CCN(Cc2ccccc2)CC1 | 17.9
COC(=O)CC1(CC(=O)OC)C(=O)N(c2ccccc2)C(=O)N(c2ccccc2)C1=O | 11.7
CCCCc1c(C)c(C#N)c2nc3ccccc3n2c1Nc1c(C)n(C)n(-c2ccccc2)c1=O | 0.703
CN(c1ccccc1)c1nc(N)c([N+](=O)[O-])c(Nc2ccc(F)cc2)n1 | 13.7
Oc1oc(C=Nc2ccc(F)cc2F)c2ccccc12 | 15.5
CC1(C)NC(=O)N(CC(O)CN2CCOCC2)C1=O (stereo not shown) | -4.81
C/C=C/c1ccc(OCCn2nnc3ccccc32)c(OC)c1 | -2.9
COc1ccc(NC(=O)c2cc(=O)c3ccccc3o2)cn1 | -17.3
O=C(NC(Cc1c[nH]c2ccccc12)C(=O)O)c1ccccc1 (stereo not shown) | 1.22
CCCN(c1ccc(OCC)cc1)c1ncnc2nc[nH]c12 | -19
O=C(COC(=O)CNC(=O)c1ccccc1)Nc1ccc(S(=O)(=O)N2CCCC2)cc1 | -9.13
Cc1ccc(S(=O)(=O)N2CCOCC2)cc1NC(=O)CSc1nc(N)cc(=O)[nH]1 | 19
O=C1CN(C(=O)NCC(=O)N[C@H](C(=O)O)c2ccccc2)c2ccccc2N1 | -1.99
CCOC(=O)C1=C(C)NC(C)=C(C(=O)OCC)C1c1cc2ccc(C)cc2[nH]c1=O | 4.64
